Test results taken from ChEMBL document CHEMBL4888484, “Replenishing the malaria drug discovery pipeline: Screening and hit evaluation of the MMV Hit Generation Library 1 (HGL1) against asexual blood stage Plasmodium falciparum ,using a nano luciferase reporter read-out” (2022).
The campaign covered roughly 150,000 compounds. About 540 (0.36%) showed an effect of 50% or more. The list shows a part of the results.

What follows are compounds tested on Plasmodium falciparum (assay: Primary screen in NF54 nanoGlo assay, in single point, at 2uM, 72h; a lower Z score goes with more inhibition). Details: timepoint 72 hour.
Format: functional, Erythrocyte
`N#Cc1ccccc1NC(=O)c1cc(S(=O)(=O)N2CCCC2)cs1` was tested, and the “% Inhibition” value was -6% and the Z score was 1.16. With `C#CCCC1(CCC(=O)N2CCOc3c2c(C)nn3C)N=N1` the “% Inhibition” value was 0% and the Z score was -0.05. For `Cn1cccc(C(=O)NC2CCN(c3cc4c(nn3)CCCC4)CC2)c1=O`, the “% Inhibition” value was -11% and the Z score was 1.92. For `CN(C[C@@H]1C[C@H](F)CN1Cc1ccnn1C)S(=O)(=O)CC12CCC(CC1)C2`, the “% Inhibition” value was -7% and the Z score was 0.56. For `C=CCNc1nc(-c2ccc3c(c2)CCCC(=O)N3)cs1`, the “% Inhibition” value was -6% and the Z score was 0.79. For `Cc1nn(C)c(C)c1CNc1ccc2nnnn2n1`, the “% Inhibition” value was -8% and the Z score was 1.02. In the case of `O=S(=O)(Nc1ccccc1-c1cn2c(n1)CCCC2)C1CC1`, the “% Inhibition” value is reported as 8% and the Z score is reported as -1.04. For `Cc1nc(CC(C)C)oc1C(=O)Nc1ccc(N2CCOC[C@@H]2C)cc1`, the “% Inhibition” value was 3% and the Z score was -0.33. For `O=C(N[C@H]1CCCCNC1=O)c1ccsc1`, the “% Inhibition” value was 6% and the Z score was -0.89. With `COc1cc2c(-c3ccccc3)c(C)oc2cc1CN1CCc2nnc(CNC(C)=O)n2CC1` the “% Inhibition” value was -4% and the Z score was 0.44. In the case of `CN1CCN(C(=O)c2ccc3c(c2)OCCO3)CC1=O`, the “% Inhibition” value is reported as -3% and the Z score is reported as 0.57. In the case of `Nc1ccc2c(c1)[C@@H](O)C[C@@H](C(F)(F)F)O2`, the “% Inhibition” value is reported as 29% and the Z score is reported as -3.33. For `COCCn1c(=O)n([C@H]2CCCN(C(=O)Nc3cccc(C)c3)C2)c2ncccc21`, the “% Inhibition” value was -5% and the Z score was 0.66. `CS(=O)(=O)N1CCC(Cc2ccc(C(=O)N3CCc4ccccc43)cc2)CC1` was tested, and the “% Inhibition” value was -2% and the Z score was 0.33. In the case of `COc1c(C)cnc(Cn2cnc(C#N)c2C#N)c1C`, the “% Inhibition” value is reported as -4% and the Z score is reported as 0.57. `COc1ccc2c(c1)CCC[C@@]2(O)CNC(=O)c1ccc(S(=O)(=O)N(C)C)cc1` was tested, and the “% Inhibition” value was -1% and the Z score was 0.18. For `Cc1ccc(C(=O)NCCCC(C)C)n1C`, the “% Inhibition” value was -15% and the Z score was 2.43. With `Cc1nc([C@H](C)NC(=O)c2ccn(C(C)C)n2)n[nH]1` the “% Inhibition” value was -16% and the Z score was 3.23. `CC(C)c1nn(-c2cccc(Cl)c2)c(C(C)C)c1C(=O)NC[C@H]1CCCO1` was tested, and the “% Inhibition” value was 7% and the Z score was -0.99. In the case of `O[C@@]1(Cn2ccnc2-c2ccncc2)CCCOC1`, the “% Inhibition” value is reported as -9% and the Z score is reported as 1.49. With `O=S(=O)(Oc1cccc(-n2cncn2)c1)c1cc(F)cc(F)c1` the “% Inhibition” value was -8% and the Z score was 1.16. In the case of `O=C1CC[C@H]2CN(S(=O)(=O)c3ccccc3F)CCN12`, the “% Inhibition” value is reported as 8% and the Z score is reported as -0.95. In the case of `O=C1OCCN1CCCN1C(=O)NC2(CCCCCCC2)C1=O`, the “% Inhibition” value is reported as -3% and the Z score is reported as 0.4. `CCC(=O)N1CC[C@H](NC(=O)Nc2ccc3nn(C(C)C)cc3c2)C1` was tested, and the “% Inhibition” value was -5% and the Z score was 0.54. For `CN(C)[C@H]1CCN(C(=O)c2ccc(F)c(Cl)c2)C[C@H]1CCCO`, the “% Inhibition” value was -11% and the Z score was 1.2. With `CCOc1ccc(S(=O)(=O)N2CCC[C@](CC3CC3)(C(N)=O)C2)cc1` the “% Inhibition” value was -9% and the Z score was 1.21. `NC(=O)CCc1nc(CCc2ccccc2)no1` was tested, and the “% Inhibition” value was 8% and the Z score was -1.22. `c1ccc(CN2CCCC3CN(CCn4ccnc4)CCC32)cc1` (centres undefined) was tested, and the “% Inhibition” value was 2% and the Z score was -0.18. With `COc1ccc(S(=O)(=O)N2CCOCC2)cc1NC(=O)C1CC(=O)N(C2CCCC(C)C2C)C1` (centres undefined) the “% Inhibition” value was 9% and the Z score was -1.17. With `Cc1noc2ncc(NC(=O)C(=O)NCCCc3ccccc3)cc12` the “% Inhibition” value was -5% and the Z score was 0.64. With `Cc1nc(-c2cccc(NC(=O)c3cnn4c3OCCC4)c2)cs1` the “% Inhibition” value was -4% and the Z score was 0.65. In the case of `CCCOc1ccc(C(=O)N2CCN(c3ccc(NC(=O)c4ccc(OCc5ccccc5)cc4)cc3Cl)CC2)cc1`, the “% Inhibition” value is reported as -3% and the Z score is reported as 0.53. With `Cc1nc(C(=O)Nc2cc(CC(C)(C)C)n[nH]2)c(=O)[nH]c1C` the “% Inhibition” value was -4% and the Z score was 0.66. With `O=C(CCc1ccccc1)c1cccnc1` the “% Inhibition” value was 2% and the Z score was -0.24. With `Cn1nc2c(c1CNC(=O)c1ccc(=O)[nH]n1)CCC2` the “% Inhibition” value was 21% and the Z score was -2.66. In the case of `CS(=O)(=O)N1CC[C@H]2CN(C(=O)c3ccc4ncccc4c3)C[C@@]2(CF)C1`, the “% Inhibition” value is reported as 1% and the Z score is reported as -0.17. In the case of `CCN1Cc2cccc(CNc3ccc(C)c(Cl)c3)c2C1`, the “% Inhibition” value is reported as -5% and the Z score is reported as 0.86. With `CCS(=O)(=O)N(C)Cc1cc(F)ccc1Cl` the “% Inhibition” value was 6% and the Z score was -0.61. For `Cc1ccc(S(=O)(=O)N2CCN=C2N2CCN(C)CC2)c(C)c1`, the “% Inhibition” value was -6% and the Z score was 1.18. For `CNc1nc(N[C@H]2CC(C)(C)Cc3nc(N4CCOCC4)ncc32)ncc1F`, the “% Inhibition” value was -8% and the Z score was 1.51. For `CCC(=O)Nc1cnc(OC)nc1OC`, the “% Inhibition” value was -9% and the Z score was 1.63. For `CO[C@H]1CNC[C@@H]1NC(=O)Nc1ccc(Cl)cc1Cl`, the “% Inhibition” value was -8% and the Z score was 1.03.
